{"source": "patent US20130336953A1", "about": "“USE OF CREATINE KINASE FOR PREVENTING OR TREATING ADDICTION TO OPIATES” (UNIVERSITÉ DE STRABOURG, priority 2011, published 2013)", "key": {"[1]": {"assay": "Morphine-type immunoreactivity of purified creatine kinase, Western blot with 6D6 antibody", "assay_type": "binding", "conditions": "for morphine-type immunoreactivity: 2 μg on SDS-PAGE, 6D6 antibody, bands at 42 and 84 kDa (monomer and dimer); for binding of morphine and/or morphine derivatives: overall conclusion of the experiments", "method": "For this purpose, 2 μg of human creatine kinase BB was deposited on SDS-PAGE, then transferred onto membrane treated with the 6D6 antibody."}, "[2]": {"assay": "Dissociation of the morphine-type molecule from creatine kinase by urea buffer TP5 with or without heat treatment", "assay_type": "binding", "conditions": "0.5 μg on gel; 100° C., 10 minutes; 6D6 antibody", "method": "The dissociation of the morphine-type molecule of creatine kinase BB (deposit 0.5 μg on gel) treated in the presence of urea (TP5) whether or not combined with heat treatment (100° C., 10 minutes), was tested and immunodetected by Western blotting by means of the anti-morphine antibody 6D6."}, "[3]": {"system": "phosphatidylethanolamine-binding protein (PEBP)", "conditions": "cited from earlier work"}, "[4]": {"target": "rabbit creatine kinase MM (Oryctolagus cuniculus, UniProt P00563)", "sequence (P00563 whole entry)": "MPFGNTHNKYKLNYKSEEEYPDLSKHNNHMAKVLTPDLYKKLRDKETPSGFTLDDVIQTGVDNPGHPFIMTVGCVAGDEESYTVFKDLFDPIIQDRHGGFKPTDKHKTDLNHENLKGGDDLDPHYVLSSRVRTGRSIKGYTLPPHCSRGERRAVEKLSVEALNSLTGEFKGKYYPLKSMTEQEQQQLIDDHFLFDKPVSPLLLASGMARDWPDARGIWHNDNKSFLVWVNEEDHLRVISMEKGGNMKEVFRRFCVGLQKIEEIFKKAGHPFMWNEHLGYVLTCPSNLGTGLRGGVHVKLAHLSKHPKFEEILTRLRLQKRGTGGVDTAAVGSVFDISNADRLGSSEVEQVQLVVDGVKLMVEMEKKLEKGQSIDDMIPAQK", "assay": "Effect of morphine antagonist on rabbit creatine kinase MM", "conditions": "data not presented"}, "[5]": {"conditions": "in vivo; cited from earlier work"}, "human creatine kinase BB": {"target": "human creatine kinase BB (Homo sapiens, UniProt P12277)", "sequence (P12277 whole entry)": "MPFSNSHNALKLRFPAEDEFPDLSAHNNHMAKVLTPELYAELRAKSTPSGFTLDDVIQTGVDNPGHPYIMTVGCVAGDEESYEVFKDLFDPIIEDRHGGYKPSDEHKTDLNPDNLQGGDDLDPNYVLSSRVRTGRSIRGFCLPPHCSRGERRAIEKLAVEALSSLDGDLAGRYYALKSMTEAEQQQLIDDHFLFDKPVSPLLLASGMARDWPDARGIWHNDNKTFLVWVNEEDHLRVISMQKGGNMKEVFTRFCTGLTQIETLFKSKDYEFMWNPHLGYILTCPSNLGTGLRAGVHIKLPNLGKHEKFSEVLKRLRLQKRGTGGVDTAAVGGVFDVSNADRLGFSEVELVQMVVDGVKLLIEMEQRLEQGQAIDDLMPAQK", "assay": "Incubation of human creatine kinase BB with naloxone, Western blot", "assay_type": "binding"}, "[6]": {"system": "opiate-creatine kinase B complexes", "assay": "Dissociation of opiate-creatine kinase B complexes by treatments", "assay_type": "binding", "conditions": "treatment with antagonist"}, "[7]": {"system": "anti-morphine antibody 6D6", "conditions": "cited from earlier work"}, "[8]": {"target": "creatine kinase B—alkaloids complexes (Mus musculus, UniProt Q04447)", "sequence (Q04447 whole entry, one chain of several)": "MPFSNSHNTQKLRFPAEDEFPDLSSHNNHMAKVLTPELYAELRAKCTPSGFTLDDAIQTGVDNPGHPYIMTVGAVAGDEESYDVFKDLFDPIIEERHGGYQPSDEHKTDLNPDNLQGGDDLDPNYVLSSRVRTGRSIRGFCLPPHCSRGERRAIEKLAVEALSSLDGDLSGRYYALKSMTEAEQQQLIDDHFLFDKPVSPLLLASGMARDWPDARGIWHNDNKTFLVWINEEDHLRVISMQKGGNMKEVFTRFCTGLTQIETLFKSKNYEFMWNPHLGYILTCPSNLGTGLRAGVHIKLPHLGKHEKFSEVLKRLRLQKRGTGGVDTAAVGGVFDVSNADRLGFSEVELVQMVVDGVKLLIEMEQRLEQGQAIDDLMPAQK", "assay": "Competition test on mouse brain extracts with naloxone, Western blot with anti-morphine antibody 6D6", "conditions": "mouse brain extracts incubated with naloxone 12 h at 37° C., ratio 1:1 m/m; urea buffer without heat treatment; 6D6 antibody"}}}
{"molecule": "creatine kinase BB: Commercial purified human brain creatine kinase BB (ref. 30-AC55, Fitzgerald), active form", "values": [{"measurement": "morphine-type immunoreactivity", "setting": "[1]", "result": "two immunoreactive bands"}, {"measurement": "binding of morphine and/or morphine derivatives", "setting": "[1]", "result": "bind strongly, noncovalently"}, {"measurement": "morphine-type immunolabeling after urea (TP5) with or without heat treatment", "setting": "[2]", "result": "only lost when the complex has undergone the heat treatments combined with urea"}]}
{"molecule": "CN1CC[C@]23c4c5ccc(O)c4O[C@H]2[C@@H](O)C=C[C@H]3[C@H]1C5", "note": "[morphine]", "values": [{"measurement": "binding affinity to PEBP", "setting": "[3]", "result": "does not have any affinity"}]}
{"molecule": "CK-M: Muscular creatine kinase, rabbit, ref. C3755, Sigma Aldrich", "values": [{"measurement": "morphine-type immunoreactivity", "setting": "[1]", "result": "identical result"}, {"measurement": "binding of morphine and/or morphine derivatives", "setting": "[1]", "result": "bind strongly, noncovalently"}, {"measurement": "morphine-type immunolabeling after urea (TP5) with or without heat treatment", "setting": "[2]", "result": "only lost when the complex has undergone the heat treatments combined with urea"}, {"measurement": "replacement of bound morphine-type molecules by a morphine analog (alkaloid labeling)", "setting": "[4]", "result": "Identical results"}]}
{"molecule": "CN1CC[C@]23c4c5ccc(O[C@@H]6O[C@H](C(=O)O)[C@@H](O)[C@H](O)[C@H]6O)c4O[C@H]2[C@@H](O)C=C[C@H]3[C@H]1C5", "note": "[M3G, morphine-3-glucuronide]", "values": [{"measurement": "analgesic activity", "setting": "[5]", "result": "devoid of analgesic activity"}, {"measurement": "binding affinity to PEBP", "setting": "[3]", "result": "low affinity"}]}
{"molecule": "CN1CC[C@]23c4c5ccc(O)c4O[C@H]2[C@@H](O[C@@H]2O[C@H](C(=O)O)[C@@H](O)[C@H](O)[C@H]2O)C=C[C@H]3[C@H]1C5", "note": "[M6G, morphine-6-glucuronide]", "values": [{"measurement": "binding affinity to PEBP", "setting": "[3]", "result": "low affinity"}]}
{"molecule": "C=CCN1CC[C@]23c4c5ccc(O)c4O[C@H]2C(=O)CC[C@@]3(O)[C@H]1C5", "note": "[naloxone]", "values": [{"measurement": "alkaloid labeling (morphine-type molecule) relative to the control experiments", "setting": "human creatine kinase BB; creatine kinase BB 1 μg incubated with naloxone 12 h at 37° C., urea buffer TP5 without heat treatment, 6D6 antibody", "result": "significantly decreased"}, {"measurement": "immunoreactivity with the anti-CK-BB antibody", "setting": "human creatine kinase BB; same samples, incubated with naloxone 12 h at 37° C., data not presented", "result": "unchanged"}, {"measurement": "dissociation of opiate-creatine kinase B complexes", "setting": "[6]", "result": "dissociate"}, {"measurement": "cross-reaction with antibody 6D6 in ELISA", "setting": "[7]", "result": "did not display cross-reaction"}, {"measurement": "alkaloid labeling relative to the control experiments", "setting": "[8]", "result": "significantly decreased"}]}
{"molecule": "O=C1CC[C@@]2(O)[C@H]3Cc4ccc(O)c5c4[C@@]2(CCN3CC2CC2)[C@H]1O5", "note": "[naltrexone]", "values": [{"measurement": "dissociation of opiate-creatine kinase B complexes", "setting": "[6]", "result": "dissociate"}]}
